The campaign covered roughly 44,000 compounds. About 340 (0.77%) were called active. About 5% were inconclusive and are not listed. Calls follow the shape of the dose curve; as a rule, active = well fitted inhibition curve with a large enough effect; inconclusive = small, poorly fitted or top-dose-only effect; inactive = flat fitted curve, though single readings scatter. Some of the results follow.
assay: Acumen qHTS Assay for Inhibitors of the mTORC1 Signaling Pathway in MEF (Tsc2-/-, p53-/-) Cells: Sytravon; conditions: phospho-rpS6 immunofluorescence/PI, 24 h; series mostly up to 38.3 µM; activity change, negative = inhibition: at the top concentration;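 also: plate controls were DMSO for no effect and rapamycin for full effect; nearly all actives have a fitted effect of over 50% in size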
Outline: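 Read-out: phospho-S6 Alexa-488 intensity over PI intensity per well, scored as % active cells using thresholds from rapamycin (7.5 nM) and DMSO controls. Tsc2-/-, p53-/- MEFs exposed to compound for 24 h; PI cell count recorded as viability.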

Structure (SMILES) | activity change, negative = inhibition
CCN1CCSc2ccc(C(=O)NCc3ccccc3Br)cc21 | inactive: -9.91%
COc1ccc(Cn2c(CO)cnc2SCc2cccc(C)c2)cc1 | inactive: 0.549%
COc1ccccc1N1CCN(C(=O)CCS(=O)(=O)c2cc(Br)cc3c2N(C(C)=O)CC3)CC1 | inactive: 0.68%
O=C(COc1ccc(Cl)cc1)NCC(c1ccco1)S(=O)(=O)c1ccc(Cl)cc1 (centres undefined) | inactive: -5.87%
Cc1cc(C)c2oc(-c3ccc(C)c(NC(=O)/C=C/c4ccco4)c3)nc2c1 | inactive: -0.434%
COc1ccc(CNC(=O)c2cc3c(=O)n(C)c4ccccc4c3n2C)c(OC)c1 | inactive: 2%
Cc1nc(N2CCCC2)ncc1C(=O)N1CCN(c2ccccc2F)CC1 | inactive: 9.98%
CCS(=O)(=O)c1c(Nc2cc(C)ccc2C)sc(C(=O)c2ccccc2)c1N | inactive: 0.923%
Cc1ccc(C(=O)n2nc(C)c(S(=O)(=O)N3CCOCC3)c2C)cc1C | inactive: 0.896%
CC1=C(C(=O)Nc2ccccc2)C(c2cc(Br)ccc2F)n2ncc(C(=O)Nc3ccccc3)c2N1 (centres undefined) | inactive: -5.49%
COc1cccc(-c2nc(S(=O)(=O)c3ccccc3)c(N3CCC(C)CC3)o2)c1 | inactive: -20.5%
Cc1ccc(NC(=O)c2nnn(CC(=O)Nc3ccc(C)c(Cl)c3)c2N)c(C)c1 | inactive: 1.65%
O=c1c2ccccc2nc(-c2ccc(Cl)cc2)n1CCCOc1ccccc1F | inactive: 2.91%
COc1cc(C(=O)NCCc2csc3nc(-c4ccccc4C)nn23)cc(OC)c1OC | inactive: -14%
COc1ccc(NC(=O)Cn2c(=O)n(-c3ccc(OC)cc3)c(=O)c3ccc(C(=O)NCc4ccc(C)cc4)cc32)cc1 | inactive: -19.4%
CC(C)c1ccc(NC(=O)CC2Oc3ccccc3NC2=O)cc1 (centres undefined) | inactive: -0.207%
Cc1cc(OCC(=O)N(Cc2ccc(N(C)C)cc2)C2CCS(=O)(=O)C2)cc(C)c1Cl (centres undefined) | inactive: 3.53%
Cc1ccc(Cl)cc1NC(=O)CN1C(=O)COc2ccc(S(=O)(=O)N3CCCCCC3)cc21 | inactive: -2.8%
COc1ccccc1CCNC(=O)CCc1c(C)c2cc3c(C)c(C)oc3cc2oc1=O | inactive: -7.04%
Cc1ccc(NC(=O)C(=O)NCC(c2ccc3c(c2)OCO3)N2CCN(c3ccccc3)CC2)cc1 (centres undefined) | inactive: -7.99%

Structure (SMILES) | activity change, negative = inhibition
O=C(c1cccs1)c1cn(CCOc2ccccc2Cl)c2ccccc12 | inactive: -13.9%
CCN(C(=O)C(Cc1ccccc1)NS(=O)(=O)c1cccc2nsnc12)c1ccccc1 (centres undefined) | inactive: -13.9%
Cc1ccc(C)c(NC(=O)CCc2c(C)nn(-c3ccc(N4CCCC4)nn3)c2C)c1 | inactive: -26%
CCOc1ccc(CCNC(=O)c2ccc(-c3nc(COc4ccc(C)cc4)c(C)o3)cc2)cc1 | inactive: 0.61%
COc1ccc(NC(=O)CSc2nc(-c3ccc(F)cc3)c3cccc(C)c3n2)cc1 | inactive: -1.78%
COCCCn1c(SCC(=O)Nc2ccccc2OC)nc2c(sc3ccccc32)c1=O | inactive: -2.43%
COc1ccc(CCNC(=O)c2ccc(Cn3c(=O)c4ccccc4n(Cc4ccc(C)cc4)c3=O)cc2)cc1OC | inactive: -1.26%
COc1ccc(C2C(=O)N(C3CCCCCC3)CC(=O)N2CCc2ccc(OC)c(OC)c2)cc1 (centres undefined) | inactive: -13.2%
Cc1ccc2nc(CN3CCN(C(=O)Nc4ccc(C)c(F)c4)CC3)oc2c1 | inactive: 0.754%
CCCCN(C)CCCNC(=O)c1cc(-c2cccnc2)nc2ccccc12 | inactive: 0.494%
CCC1=Nc2cc(C(=O)NCc3ccc(C)cc3)ccc2Sc2ccc(C)cc21 | inactive: -16.4%
CCOC(=O)C1CCCN(C(=O)Cn2ncn3c(cc4sc(CC)cc43)c2=O)C1 (centres undefined) | inactive: -2.67%
COC(=O)c1ccc(OC)c(Cn2c(=O)n(-c3cccc(Cl)c3)c(=O)c3c4c(sc32)CN(C(C)=O)CC4)c1 | inactive: 5.19%
COc1ccc(-c2oc3ncn4nc(COc5ccccc5C)nc4c3c2-c2ccc(OC)cc2)cc1 | inactive: 7.47%
COc1cc(OC)c(NC(=O)Cc2ccc(-n3c(C)nc4cccnc43)cc2)cc1Cl | inactive: -10.5%
O=C(Nc1ccc(F)cc1)[C@@H](c1ccccc1)N1Cc2ccccc2C1=O | inactive: -5.31%
COc1ccc(-c2noc(N3CCC(C(=O)N(C)c4cc(Cl)ccc4OC)CC3)n2)cc1 | inactive: -4.2%
COc1ccc(CCNC(=O)CCc2cn(Cc3ccc(C)cc3)c3ccccc23)c(OC)c1OC | inactive: -17.4%
CCOc1cc2[nH]c(=O)n(CCCCC(=O)N3CCN(c4ccccc4)CC3)c(=O)c2cc1OCC | inactive: -1.88%
CCC(C)NC(=O)c1[nH]c2cc(C)ccc2c1Sc1ccc(Cl)cc1 (centres undefined) | inactive: 1.37%

Structure (SMILES) | activity change, negative = inhibition
Cc1cccc(C)c1OCC(=O)Nc1c(C(=O)c2ccc(Br)cc2)oc2ccccc12 | inactive: -2.2%
COc1ccc2oc(=O)c(-c3cn4c(n3)sc3cc(F)ccc34)cc2c1 | inactive: -4.72%
COc1ccc2c(CNCCc3cccs3)c(C(=O)O)n(Cc3ccccc3C)c2c1 | inactive: -3.18%
O=C(CN1C(=O)COc2ccc(S(=O)(=O)N3CCCCCC3)cc21)N1CCN(c2cccc(C(F)(F)F)c2)CC1 | inactive: -2.4%
Cc1cccc(N2CCN(C(=O)C3CCN(S(=O)(=O)c4c(C)noc4C)CC3)CC2)c1C | inactive: -5.42%
CCCOc1ccc(-c2nc(N3CCC(C)CC3)c3ccccc3n2)cc1 | inactive: 1.12%
CCCn1c2ccccc2c2cnn(CC(=O)N(Cc3ccccc3)C(C)C)c(=O)c21 | inactive: -5.44%
CCCCOc1ccc(S(=O)(=O)NCc2csc(-c3ccc(OC)cc3)n2)cc1 | inactive: -0.103%
COc1ccc(CC(=O)NCC(c2cccs2)S(=O)(=O)c2ccc(Cl)cc2)cc1 (centres undefined) | inactive: -4.84%
CCC(C(=O)Nc1cc(OC)ccc1OC)n1c(C)c2cnn(-c3ccccc3)c(=O)c2c1C (centres undefined) | inactive: -20%
Cc1c(C(=O)N2CCCC2)oc2c1-c1nn(CC(=O)NC(C)c3ccccc3)cc1CC2 (centres undefined) | inactive: -16.9%
Cc1ccc(S(=O)(=O)NCCc2nnc3ccc(SCc4ccc(F)cc4)nn23)cc1 | inactive: -2.24%
Cc1cc(F)ccc1NC(=O)c1ccc2nc(Cc3ccccc3)oc2c1 | inactive: -4.23%
COc1ccc(-n2ccn(CC(=O)NCc3ccc(C)cc3)c(=O)c2=O)cc1OC | inactive: 5.29%
COc1ccccc1Cn1cc(C(=O)c2ccc(F)cc2)c(=O)c2cc3c(cc21)OCO3 | inactive: -7.86%
Cc1ccc(Nc2ncc(C(=O)N3CCN(c4cccc(Cl)c4)CC3)c3ccccc23)cc1Cl | inactive: 0.326%
Cc1ccc2oc(C(=O)Nc3cccc(-c4nc5ccccc5s4)c3)c(C)c2c1 | inactive: -0.427%
Cc1ccc(C)c(N2CCN(C(=O)c3cc(S(=O)(=O)N4CCC(C)CC4)cn3C)CC2)c1 | inactive: 4.12%
COc1ccccc1C(=O)c1cn(CC(=O)Nc2ccccc2F)c2nc(C)ccc2c1=O | inactive: 9.37%

Reference: PubChem BioAssay AID493208 (National Center for Advancing Translational Sciences (NCATS), 2011)
